Assay results: PubChem BioAssay AID588795 (National Center for Advancing Translational Sciences (NCATS), 2011)
The campaign covered roughly 390,000 compounds. About 1,400 (0.36%) were called active. Inconclusive means that the source gave no clear call. Such entries were picked first, then a sample of the others. The call rests on the fitted dose curve; in most records, active means well fitted inhibition curve with a large enough effect; inconclusive means small, poorly fitted or top-dose-only effect; inactive means no such curve, though single readings can be large or run the other way. Potencies beside an inconclusive call are fits to weak or partial responses and may not hold up.

target: Flap endonuclease 1 (Homo sapiens) (UniProt P39748); test: qHTS Assay for the Inhibitors of Human Flap endonuclease 1 (FEN1).; further: nearly all actives have a fitted effect of over 65% in size; conditions: Recombinant FEN1 flap cleavage, fluorescence, 15 min; series mostly up to 114 µM; activity change, negative = inhibition: at the top concentration
UniProt P39748, sequence (P39748 whole entry, looked up): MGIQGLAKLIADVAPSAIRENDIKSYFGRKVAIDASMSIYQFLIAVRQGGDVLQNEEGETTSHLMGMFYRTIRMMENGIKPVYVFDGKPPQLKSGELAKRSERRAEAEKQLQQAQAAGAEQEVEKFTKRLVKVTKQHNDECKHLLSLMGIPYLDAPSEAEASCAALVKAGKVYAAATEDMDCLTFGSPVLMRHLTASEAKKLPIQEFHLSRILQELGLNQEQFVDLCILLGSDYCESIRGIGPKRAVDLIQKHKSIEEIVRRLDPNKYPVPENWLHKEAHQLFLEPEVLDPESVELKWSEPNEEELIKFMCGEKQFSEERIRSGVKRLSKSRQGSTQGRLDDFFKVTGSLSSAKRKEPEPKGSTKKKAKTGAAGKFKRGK
In short: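 With each library titrated from low to high concentration, compounds met 10 nM FEN1 for 15 min at room temperature before 50 nM substrate was added; readings at 0 and 15 min fed four-parameter Hill curve fits.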
On the % scale 0 is the no-effect control and ±100 the full control effect; potency means the concentration at half of the fitted maximal effect; tags describe the fitted curve by direction and shape.

Q: For `COc1ccc(-c2c(-c3ccc(S(C)(=O)=O)cc3)sc3ccc(OC)cc23)cc1`, which Potency is on record?
A: inconclusive: 79.4 µM [inhibitor, partial curve, poor fit]

Q: `CCCCCCCCCCCCCCCC[n+]1ccc(C(N)=O)cc1` was tested. Which Potency did it give?
A: inconclusive: 70.8 µM [inhibitor, partial curve]

Q: `CC(C)(C)C(=O)Nc1ccc2c(c1)C(=O)C(=O)c1ccccc1-2` was tested. Which Potency did it give?
A: inconclusive: 12.6 µM [inhibitor, partial curve, poor fit]

Q: Which Potency does the source give for `CCCN(CCC)CCNC(=O)c1cc2c(-c3ccc(Cl)cc3)nn(C)c2s1` here?
A: inconclusive: 12.6 µM [inhibitor, full curve, poor fit]

Q: Which Potency does the source give for `COc1ccc(-c2cc(-c3cc(F)ccc3O)[nH]n2)cc1OC` here?
A: inconclusive: 89.1 µM [inhibitor, partial curve, poor fit]

Q: For `CC(=O)Nc1cccc(-c2nc3ccc(NC(C)=O)cc3[nH]2)c1`, which Potency is on record?
A: inconclusive: 79.4 µM [inhibitor, partial curve, poor fit]

Q: Which Potency does the source give for `Cc1cc2[nH]c3c(c[n+](C)c4ccccc34)c2cc1C` here?
A: inconclusive: 2.82 µM [inhibitor, full curve, poor fit]

Q: Which Potency does the source give for `Clc1ncccc1-c1nnn(-c2ccccc2Br)n1` here?
A: inconclusive: 89.1 µM [inhibitor, partial curve, poor fit]

Q: How did the “activity change, negative = inhibition” value turn out when `Cc1ccc(NC(=O)CCn2nc(C)c(S(=O)(=O)N3CCCCC3)c2C)cc1Cl` was run?
A: inactive: -0.884%

Q: For `CCCCNC(=O)c1ccc2nc(-c3ccco3)c(-c3ccco3)nc2c1`, which Potency is on record?
A: active: 39.8 µM

Q: `CCN1CCCC1CNC(=O)c1cc2c(=O)n(C)c3ccccc3c2n1C` (centres undefined) was tested. Which Potency did it give?
A: inconclusive: 15.8 µM [inhibitor, full curve, poor fit]

Q: With `O=C1C[C@@H](c2ccccc2)Oc2cc(O)cc(O)c21` as the compound, how does the “activity change, negative = inhibition” value read?
A: inactive: 20.3%

Q: For `CCOC(=O)N1CCN(C(=O)CSc2nnc(COc3ccc(Cl)cc3)o2)CC1`, which Potency is on record?
A: inconclusive: 12.6 µM [inhibitor, partial curve, poor fit]

Q: Which Potency does the source give for `COc1c(O)ccc2c1CN1CCc3cc4c(cc3C1C2)OCO4` (centres undefined) here?
A: inconclusive: 20 µM [inhibitor, full curve]

Q: `O=C(CN1C(=O)C(=O)N(Cc2ccco2)C1=O)NC1CCCCC1` was tested. Which “activity change, negative = inhibition” value did it give?
A: inactive: 2.32%

Q: `S=c1[nH]nc(-c2ccco2)n1/N=C/C=C/c1ccco1` was tested. Which “activity change, negative = inhibition” value did it give?
A: inactive: -30.1%

Q: For `Cc1ccc(C(=O)Nc2nc(C)c(C(=O)N(C)C)s2)o1`, which “activity change, negative = inhibition” value is on record?
A: inactive: -7.5%

Q: For `Cc1ccc(CNC(=O)C2CCCCN2S(=O)(=O)c2ccccc2)cc1` (centres undefined), which “activity change, negative = inhibition” value is on record?
A: inactive: -8.73%

Q: With `CCC(=O)Nc1sc2c(c1C(=O)OC)CCN(Cc1ccccc1)C2` as the compound, how does the Potency read?
A: inconclusive: 3.16 µM [inhibitor, partial curve, poor fit]
